This is an account of results in the supplement of paper PMC11880418.

SMILES strings stand for the structures. Structures can show the parent of a compound that is named as a salt. The list shows a part of the results. The data scatter; read single values as rough. Residues, ends and D or L forms follow the SMILES beside them.

Some test systems named below: MKN45; PANC1; SUM159; T84.
Holding throughout (assay): ALDHbr (CSC) cell proportion score relative to DMSO vehicle (ratio to DMSO); breast (SUM159) / gastric (MKN45) / pancreatic (PANC1) / colon cancer lines; ALDHbr cells have high ALDH activity and are rich in cancer stem cells (CSC); higher = more CSC (ALDHbr) cells remaining
Common to all, as to conditions: 10 µM; 72 h
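Further: High-content imaging of ALDEFLUOR-stained cells with Hoechst-labelled nuclei in 384-well plates, triplicate wells, scored as Z-score against 0.1% DMSO vehicle, negative meaning fewer ALDHbr cells.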

In the case of `CCC(=O)O[C@@H](O[P@](=O)(CCCCc1ccccc1)CC(=O)N1C[C@H](C2CCCCC2)C[C@H]1C(=O)O)C(C)C` [Fosinopril], the ALDHbr in the test with MKN45 was determined as 0.558; in the test with PANC1, 0.807; in the test on SUM159, 0.794; in the test with T84, 0.895.
The corresponding values for `O=C(O)Cc1ccc(-c2ccccc2)cc1` [Felbinac] are 0.914, 1.01, 0.858 and 0.984.
The corresponding values for `CC(N/C(=N\C#N)Nc1ccncc1)C(C)(C)C` (stereo not drawn) [Pinacidil] are 0.927, 0.745, 1.27 and 1.09.
The corresponding values for `COc1cc2nc(N3CCN(C(=O)c4ccco4)CC3)nc(N)c2cc1OC` [Prazosin hydrochloride] are 0.226, 0.812, 1.03 and 1.14.
On to `C[C@H]1NC(=O)NC1=O` [Methylhydantoin-5-(D)], for which the ALDHbr with MKN45 was 0.95; in the test with PANC1 it was 0.894; in the test on SUM159, 0.931; in the test on T84, 1.01.
The corresponding values for `CCN(CC)CCOC(=O)C(c1ccccc1)C1CCCCC1` (stereo not drawn) [Drofenine hydrochloride] are 0.897, 0.967, 0.769 and 0.951.
The corresponding values for `CC[C@H](C)[C@H](N)C1=N[C@H](C(=O)N[C@@H](CC(C)C)C(=O)N[C@H](CCC(=O)O)C(=O)N[C@H](C(=O)N[C@H]2CCCCNC(=O)[C@H](CC(N)=O)NC(=O)[C@@H](CC(=O)O)NC(=O)[C@H](Cc3cnc[nH]3)NC(=O)[C@@H](Cc3ccccc3)NC(=O)[C@H]([C@@H](C)CC)NC(=O)[C@@H](CCCN)NC2=O)[C@@H](C)CC)CS1` [Bacitracin] (HELM PEPTIDE1{[CC[C@H](C)[C@H](N)C1=N[C@H](C(=O)[*:2])CS1].L.[dE].I.K.[NCCC[C@@H](N[*:1])C(=O)[*:2]].I.[dF].H.[dD].N}$PEPTIDE1,PEPTIDE1,5:R3-11:R2$$$V2.0) are 0.731, 0.856, 1.02 and 0.932.
